Data on 54 sequences can be found in publication PMC7819943, “Rice protein-binding microarrays: a tool to detect cis-acting elements near promoter regions in rice”.

The list shows a part of the results.

In this assay the target is T1, OsWOX13 (Oryza sativa, UniProt Q5QMM3 1-267).
T1 sequence: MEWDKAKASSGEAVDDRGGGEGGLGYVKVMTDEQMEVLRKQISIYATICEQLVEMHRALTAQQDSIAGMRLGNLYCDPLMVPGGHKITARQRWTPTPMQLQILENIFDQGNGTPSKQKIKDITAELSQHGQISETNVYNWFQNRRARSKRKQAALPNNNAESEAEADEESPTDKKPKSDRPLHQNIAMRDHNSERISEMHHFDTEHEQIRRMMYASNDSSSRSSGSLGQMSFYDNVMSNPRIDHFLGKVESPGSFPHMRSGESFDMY
Nature of the assay: protein-binding microarray (RPBM); PBS, 2% BSA, 51.3 ng/ul salmon testes DNA, 50 uM zinc acetate, 200 nM TF, 25 C, 1 h; high values mean tight binding. As to conditions: protein: recombinant; tags: N-terminal polyhistidine and DsRed monomer fusion (pET32a); label: CyDye5-dUTP incorporated in the synthesized complementary strand; 3' TTTTT single-stranded linker to array surface; dsDNA, one strand shown. The method in brief:
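For the binding signal, per-feature fluorescence intensity was read in arbitrary units on an Axon 4000B scanner. Before scanning, a 2% BSA-blocked custom Agilent array made double-stranded with Cy5-dUTP was washed after 1 h at 25 °C with 200 nM protein and 50 µM zinc acetate. The proteins were Ni–NTA-purified transcription factors with N-terminal polyhistidine and DsRed fusions, expressed in E. coli BL21-CodonPlus.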
Consider “TCTAAATTTAACTTGCATCACATTAGTTCTGGAAAGAGCACGGAGTCACCTAGTGCAG”, for which the binding signal is 12200 fluorescence intensity (a.u.). Under “CTGTGACTAGTCACGTCCATATCATAAATTAGAGTTGTACCGGAGTCACCTAGTGCAG” stands 3800 fluorescence intensity (a.u.); under “CTATCAGAATAAATCAATTGTTAACCATGTATGGAGTATCCGGAGTCACCTAGTGCAG”, 3580 fluorescence intensity (a.u.); under “TATGGTAACAGGCCTGATAGGTTACTTTGTGCATTGAGAACGGAGTCACCTAGTGCAG”, 4170 fluorescence intensity (a.u.).

As for “GAAATAAATAAACTGGAGTAGTAATAGAGAGATTAGACCACGGAGTCACCTAGTGCAG”, the binding signal was 5730 fluorescence intensity (a.u.). “CCTGATTTCCTCCTTTCAGTGAAGTGTTAAACCCTAGCTACGGAGTCACCTAGTGCAG”: the binding signal was 21500 fluorescence intensity (a.u.).

Regarding “CTGAAAATTATTGAGTTTTCAGATTAAGTGGTGGGTGTGCCGGAGTCACCTAGTGCAG”, the binding signal is 8550 fluorescence intensity (a.u.). Under “CATAATTGAGGGGCCCGACTTATTCCCGCACGTGGCCGTACGGAGTCACCTAGTGCAG” stands 41600 fluorescence intensity (a.u.); under “GTTCGATGTGACAGGGTGCAAAATTTCGGGGTGGGATCTACGGAGTCACCTAGTGCAG”, 3610 fluorescence intensity (a.u.). With “ACATATAAATACTAAATTATCATTCACAAATCATTTTCATCGGAGTCACCTAGTGCAG”, the binding signal is 4400 fluorescence intensity (a.u.). Take “ATATAATGTTGATTGGAGTGCGTGCGAAGAATGTGAGTTTCGGAGTCACCTAGTGCAG”: the binding signal is 25200 fluorescence intensity (a.u.). Regarding “TGAAATAATAATTATTCAAATAATTATACGCTAATGGCTCCGGAGTCACCTAGTGCAG”, the binding signal was 15700 fluorescence intensity (a.u.). In the case of “TATTCTCTATCCAACAAATCAATTAAACATGCCATGACTTCGGAGTCACCTAGTGCAG” it was 5480 fluorescence intensity (a.u.); in that of “CGTACACCAATCACACCGGAGCCCTCTCACCAATGGTTCTCGGAGTCACCTAGTGCAG”, 9330 fluorescence intensity (a.u.); in that of “GTGTTGATTAAAATTGATGATTAATTACTCTACTGTTTTACGGAGTCACCTAGTGCAG”, 27100 fluorescence intensity (a.u.). Under “AACATCAAAATTTAATAGGATTGGCGAAGTGGGCATAGCTCGGAGTCACCTAGTGCAG” stands 4910 fluorescence intensity (a.u.).

For “GGGGACATAAATCCTGATGATTTCCTCAACTTTGATCTTGCGGAGTCACCTAGTGCAG”, the binding signal is 3630 fluorescence intensity (a.u.).

“GGATGATGCATCGCTGTGATTGCCTTATTGGAGATGAACACGGAGTCACCTAGTGCAG”: the binding signal is 13500 fluorescence intensity (a.u.).

Turning to “ATATGCTAAATTATCTGCCTGCATGATCATTGAACGCAATCGGAGTCACCTAGTGCAG”, the binding signal is 4080 fluorescence intensity (a.u.). On to “ACGCCCCATCTTAATTATATATAACAGTGAGCTATATTTTCGGAGTCACCTAGTGCAG”, for which the binding signal is 5530 fluorescence intensity (a.u.). In the case of “ATTAAAACTTAATTAATCATACGTTAATATCAACTCATTTCGGAGTCACCTAGTGCAG” it was 8390 fluorescence intensity (a.u.); in that of “CCACGTAATCTGATTTGGTTATACAAACGTGTTGCCACACCGGAGTCACCTAGTGCAG”, 9390 fluorescence intensity (a.u.). Under “AATGACGGATTAATTAGGCTTAATAAACTCGTCTCGTGGTCGGAGTCACCTAGTGCAG” stands 43200 fluorescence intensity (a.u.); under “TTAAAACTCAATTAATCGTACGTTAATAACACCTCGTTTTCGGAGTCACCTAGTGCAG”, 11900 fluorescence intensity (a.u.). Consider “TGTAATTGACATAAGTAGACATGTGAGCCAGCTTTGGTTGCGGAGTCACCTAGTGCAG”, for which the binding signal was 38900 fluorescence intensity (a.u.). With “TCTTAGATTAGTGGTTAGTCCGTTCAGAAATCAGACTTGACGGAGTCACCTAGTGCAG”, the binding signal is 6140 fluorescence intensity (a.u.). On to “AAACGAATAAATTGAATATTAGTAAGTTGATAAGGTGATACGGAGTCACCTAGTGCAG”, for which the binding signal was 13800 fluorescence intensity (a.u.). Consider “TTCCTATTTATTTAACTCAATTTCGTGGGACATACCTAACCGGAGTCACCTAGTGCAG”, for which the binding signal was 3530 fluorescence intensity (a.u.). With “AGAAATTTTAAAGGATTGGATAGGATTCAATCCTTTGTTTCGGAGTCACCTAGTGCAG”, the binding signal was 4800 fluorescence intensity (a.u.). On to “CCCTTAATTAATTAAAACCGGTCACAGTATGTCCTTTAATCGGAGTCACCTAGTGCAG”, for which the binding signal is 41300 fluorescence intensity (a.u.).

As for “CAGAGCAGGTTGATTTATTCCCACAATAATCCAAGCTCCACGGAGTCACCTAGTGCAG”, the binding signal was 3350 fluorescence intensity (a.u.). Under “CCTCTTGATTTACCCTGTCATATATAAATAAGAAATGCAACGGAGTCACCTAGTGCAG” stands 33800 fluorescence intensity (a.u.). As for “GATGTCAGCTGTCACCTCAGTAATTACCAAATAAGAACAGCGGAGTCACCTAGTGCAG”, the binding signal was 5640 fluorescence intensity (a.u.).

On to “GACTACTTGATTTTGTTTATGGTATTTCATCTGAAAATACCGGAGTCACCTAGTGCAG”, for which the binding signal is 3850 fluorescence intensity (a.u.). Under “ATGTAATATGGGTGATTTATACTCTCTCCGTTTCAACTTACGGAGTCACCTAGTGCAG” stands 3850 fluorescence intensity (a.u.); under “CGCCCTTTGACCCAACAGCCAACAGGTGGTGTAGTGACTACGGAGTCACCTAGTGCAG”, 8500 fluorescence intensity (a.u.). Under “ATTAATTAAGTTTTAATTGTTACAAACTTGACAAATAAATCGGAGTCACCTAGTGCAG” stands 18700 fluorescence intensity (a.u.).

For the sequence “GGAGAGATTGATTAGCGGGAGGAGGAACTCGAGGAGACAGCGGAGTCACCTAGTGCAG”, the binding signal was 35100 fluorescence intensity (a.u.). In the case of “CCTAGTTAATAGTTAGATCTGATTTACGTATATAGAGAAACGGAGTCACCTAGTGCAG” it was 5270 fluorescence intensity (a.u.); in that of “ATAGATGAGATTAGCTGCAGTCCTTTAACGAATTGTACCTCGGAGTCACCTAGTGCAG”, 13100 fluorescence intensity (a.u.); in that of “GTGCATTTGCTTGTAATAATTGGCATGTAAATGCCCTCTCCGGAGTCACCTAGTGCAG”, 4140 fluorescence intensity (a.u.). On to “TCTGCTTAATTGGGCCGATCTCAAGCCCTTGGCGGAACTTCGGAGTCACCTAGTGCAG”, for which the binding signal is 13100 fluorescence intensity (a.u.).

“GCCCCTTTGTTAACATGATTATCTTGTTTTCACAGAATAACGGAGTCACCTAGTGCAG”: the binding signal was 6640 fluorescence intensity (a.u.). “GTGTAATTAAGTGGCTGACAGAGGAGAGTAATTAGCCGTACGGAGTCACCTAGTGCAG”: the binding signal was 22200 fluorescence intensity (a.u.). In the case of “CCAATTAGGACCCAAATTAATCTTTGCCTTCCTGGACTTGCGGAGTCACCTAGTGCAG” it was 5190 fluorescence intensity (a.u.); in that of “CCAGGCAAATTTGATGATCTGAGACCAGGAATCCTTGGACCGGAGTCACCTAGTGCAG”, 4770 fluorescence intensity (a.u.); in that of “GTGTTATTGACTGGTATAGTTATTACCTGCTCTACTACCCCGGAGTCACCTAGTGCAG”, 32400 fluorescence intensity (a.u.). As to “TTGTGATTTTCTTAAATCTCAACCACCCGCCCATCTCCCCCGGAGTCACCTAGTGCAG”, the binding signal is 13300 fluorescence intensity (a.u.).

With “AGATGACAGATTTTGCAGCTTGAACGAATCATGCGTTTTCCGGAGTCACCTAGTGCAG”, the binding signal was 9480 fluorescence intensity (a.u.). Under “TTCTTCCTCTTGCCAATTAATTCCTCTCCAAGAACCAAGTCGGAGTCACCTAGTGCAG” stands 3470 fluorescence intensity (a.u.); under “GTTGGTGGATTGACACGACTACACGGAGTACCTAGTATTTCGGAGTCACCTAGTGCAG”, 14800 fluorescence intensity (a.u.); under “ACCTGTAGTTGCCAATCAAACATGTCTTACGGCCTGTTTGCGGAGTCACCTAGTGCAG”, 8480 fluorescence intensity (a.u.).

“CTAAATTTTGGTAACTATATAAGAAATCCTACCAAAATTTCGGAGTCACCTAGTGCAG”: the binding signal was 5400 fluorescence intensity (a.u.).

Turning to “CCATTTTAACTGACATGATTAGCCAACTATGATCATAATGCGGAGTCACCTAGTGCAG”, the binding signal is 46400 fluorescence intensity (a.u.).
